Experimental findings from PMC4336329 (PLoS ONE, 2015) are described below.

The structures appear in SMILES notation. Hit rate of the full screen: of about 310,000 compounds, about 14,000 (4.5%) showed an effect of 50% or more. Effects have a minus sign here. The list shows a part of the results.
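Also: peak tail current of the secondary pulse compared with the same well before compound.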

human ether-à-go-go-related gene (hERG) potassium channel, sequence (Q12809 whole entry, looked up): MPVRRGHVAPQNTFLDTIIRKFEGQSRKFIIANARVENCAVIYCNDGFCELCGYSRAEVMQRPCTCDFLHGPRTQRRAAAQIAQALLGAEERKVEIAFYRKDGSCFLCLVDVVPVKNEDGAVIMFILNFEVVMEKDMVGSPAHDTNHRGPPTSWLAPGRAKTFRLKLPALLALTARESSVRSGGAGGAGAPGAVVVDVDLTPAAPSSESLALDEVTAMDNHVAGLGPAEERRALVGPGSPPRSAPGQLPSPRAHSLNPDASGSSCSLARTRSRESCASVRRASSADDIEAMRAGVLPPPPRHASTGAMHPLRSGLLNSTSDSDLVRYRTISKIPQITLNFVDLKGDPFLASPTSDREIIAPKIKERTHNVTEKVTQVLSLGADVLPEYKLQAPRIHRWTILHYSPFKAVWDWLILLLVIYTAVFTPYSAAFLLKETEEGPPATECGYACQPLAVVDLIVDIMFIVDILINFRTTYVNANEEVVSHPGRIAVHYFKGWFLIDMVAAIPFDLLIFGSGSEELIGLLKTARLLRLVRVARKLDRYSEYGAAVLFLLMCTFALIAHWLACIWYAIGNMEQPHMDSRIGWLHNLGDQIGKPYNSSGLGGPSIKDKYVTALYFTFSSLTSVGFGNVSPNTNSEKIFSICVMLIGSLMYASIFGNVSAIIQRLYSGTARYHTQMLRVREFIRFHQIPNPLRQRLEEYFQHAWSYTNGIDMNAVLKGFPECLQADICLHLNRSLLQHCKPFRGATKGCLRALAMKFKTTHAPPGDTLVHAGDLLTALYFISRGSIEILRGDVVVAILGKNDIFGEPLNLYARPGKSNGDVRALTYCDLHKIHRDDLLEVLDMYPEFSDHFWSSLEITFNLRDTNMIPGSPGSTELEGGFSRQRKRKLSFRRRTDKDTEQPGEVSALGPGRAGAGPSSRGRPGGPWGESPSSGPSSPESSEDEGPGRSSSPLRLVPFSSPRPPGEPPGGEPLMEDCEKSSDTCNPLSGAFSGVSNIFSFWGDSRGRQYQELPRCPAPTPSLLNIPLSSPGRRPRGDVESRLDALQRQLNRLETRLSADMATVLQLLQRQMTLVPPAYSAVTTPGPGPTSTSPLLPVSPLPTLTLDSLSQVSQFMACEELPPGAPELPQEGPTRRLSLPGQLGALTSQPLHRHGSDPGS

The test concerns the target human ether-à-go-go-related gene (hERG) potassium channel (human, UniProt Q12809). Kind of test: primary screen, population patch clamp on CHO cells stably expressing hERG.
Turning to `CSc1nc(-c2cccs2)c(C#N)c(=O)[nH]1`, the “hERG current change (%, negative = inhibition) at 10uM” value stood at 10.3%. Under `O=C(Cc1ccc(S(=O)(=O)N2CCCC2)s1)N1CCN(c2ccc(F)cc2)CC1` stands -56.2%; under `Cc1ccc(C)c(SCC(=O)NC(=O)NCc2ccccc2)c1`, 5.71%.

Take `CCc1noc(C)c1C(=O)OCC(=O)N1CCc2ccccc21`: the “hERG current change (%, negative = inhibition) at 10uM” value is given as -13.5%. Under `COc1cccc(C(=O)Nc2ccc(S(=O)(=O)Nc3cc(C)nc(C)n3)cc2)c1` stands 4.05%; under `CC(C)CN1C=C2C(=O)C(C)(OC(=O)CCc3ccccc3)C(=O)C=C2C=C1c1ccc(C#N)cc1` (centres unmarked), -26.9%; under `CCC1Sc2ccccc2N(CC(=O)NCc2ccc3c(c2)OCO3)C1=O` (centres unmarked), -26.2%. The same measure for `COC(=O)c1ccc(NC(=O)C2C3C=CC(O3)C2C(=O)O)cc1` (centres unmarked): 17.2%; for `CCOC(=O)C1=C(C)Nc2nc(SCC)nn2C1c1ccc(OC)cc1` (centres unmarked): 21.9%; for `COc1cc(/C=C/C(=O)NC(C)C2CC3CCC2C3)cc(OC)c1OC` (centres unmarked): 10.6%. As to `COc1ccc(CCC(C)N2CCc3ccccc3C2)cc1` (centres unmarked), the “hERG current change (%, negative = inhibition) at 10uM” value was -61.7%. For the compound `O=C(C1=C[C@H](c2coc3ccccc3c2=O)C[C@H](OCCCCO)O1)N1CCOCC1`, the “hERG current change (%, negative = inhibition) at 10uM” value was -16%.

For the compound `N#Cc1c(/N=C/c2cccs2)sc2c1CCC2`, the “hERG current change (%, negative = inhibition) at 10uM” value is reported as -4.96%. The same measure for `O=C(O)Cn1c(O)c(C2=c3ccccc3=NC2=O)sc1=O`: -2.7%; for `Cc1ccc(C)c(N2N=C(C(=O)Nc3ccc(S(=O)(=O)N4CCCC4)cc3)CCC2=O)c1`: -4.34%; for `O=C(CN1C(=O)CC(c2ccccc2)=Nc2ccccc21)NC1CCCCC1`: -11.4%.

As to `COc1ccc(C(CNc2ncnc3sc(C)c(C)c23)N(C)C)cc1` (centres unmarked), the “hERG current change (%, negative = inhibition) at 10uM” value is listed as -56.4%. Regarding `COc1cc(CNC(=O)c2cccc(COc3ccc(Cl)cc3)c2)cc(OC)c1`, the “hERG current change (%, negative = inhibition) at 10uM” value was found to be 10.9%. The same measure for `COc1ccc(C(=O)Oc2ccc(/C=N/O)cc2)cc1`: -2.47%; for `CN(C)C(=O)Oc1cc(OC(=O)N(C)C)cc(C(O)CNC(C)(C)C)c1.Cl` (centres unmarked): 12.9%.

With `CCN(CC(=O)Nc1ccccc1Br)Cc1nc2ccccc2c(=O)[nH]1`, the “hERG current change (%, negative = inhibition) at 10uM” value is reported as -22.3%. Under `CCOC(=O)c1c(-c2ccccc2)csc1NC(=O)c1cccc(N2C(=O)CCC2=O)c1` stands -5.54%; under `COC(=O)C1=C(C)N(C)C(=O)/C1=C\c1cccs1`, 7.88%. Under `COc1cccc(-c2cc(C(F)(F)F)nc(-n3ccc([N+](=O)[O-])n3)n2)c1` stands -6.33%. Under `CCOc1ncccc1C(=O)NCCCSc1ccccc1` stands -35.9%; under `CCOc1ccc2nc(NC(=O)Cn3cnc4c3c(=O)n(C)c(=O)n4C)sc2c1`, -41.9%; under `O=C(CNC(=O)c1ccc(Cl)cc1)Nc1ccc(Br)cc1C(=O)c1ccccc1`, -9.18%. Consider `COC(=O)c1c(NC(=O)CCC(=O)O)sc2c1CCCCC2`, for which the “hERG current change (%, negative = inhibition) at 10uM” value turned out to be 15.2%.

Regarding `CCCOc1ccc(N2C(=O)CC(N3CCN(C(=O)c4ccco4)CC3)C2=O)cc1` (centres unmarked), the “hERG current change (%, negative = inhibition) at 10uM” value is -35.8%.

Consider `CCC(=O)Nc1c(S(=O)(=O)c2ccc(C)cc2)c2nc3ccccc3nc2n1C(C)c1ccccc1` (centres unmarked), for which the “hERG current change (%, negative = inhibition) at 10uM” value is recorded as -14.9%. Under `COc1ccc(CNC(=O)C[C@H]2C(=O)N(Cc3ccccc3)C[C@@H]2Cc2ccccc2)cc1` stands 2.76%; under `O=C(CNC(=O)c1ccc2c(c1)OCO2)N/N=C/c1cccc([N+](=O)[O-])c1`, 6.21%. The same measure for `CCc1ccc2c(CSc3nnnn3C)cc(=O)oc2c1`: -68.1%.

For the compound `Cc1ccc2c(c1)sc1nc(=O)ccn12`, the “hERG current change (%, negative = inhibition) at 10uM” value was -2.62%. Take `CCCCN(Cc1cc2cc(OC)ccc2[nH]c1=O)S(=O)(=O)c1ccc(C)cc1`: the “hERG current change (%, negative = inhibition) at 10uM” value is -2.39%.

Take `COc1ccc(N2CCN(C(=O)CSc3nnc(C)c(=O)[nH]3)CC2)cc1`: the “hERG current change (%, negative = inhibition) at 10uM” value is -2.91%.

Take `O=C(CNS(=O)(=O)c1ccc(F)cc1)Nc1ccc(C(F)(F)F)cc1`: the “hERG current change (%, negative = inhibition) at 10uM” value was -5.85%. Under `Cc1nc(Nc2ccc(Cl)cc2)c2nnn(Cc3ccccc3)c2n1` stands 21.2%; under `CC(NC(=O)CSc1nc(=O)cc(N)n1CCc1ccccc1)c1ccccc1` (centres unmarked), 1.91%; under `CC(C)NS(=O)(=O)c1ccc(NC(=O)Cc2ccsc2)cc1`, 16.5%. Under `O=C(CCc1ccc(Oc2cc([N+](=O)[O-])cc([N+](=O)[O-])c2)cc1)N1CCCCCC1` stands -30.2%; under `COc1ccc(S(=O)(=O)N2CCC(C(=O)NCc3cccc(OC)c3)CC2)cc1`, -17.4%. Under `CCOc1cc(NC(=S)NCCCN2CCOCC2)c(OCC)cc1NC(=O)c1ccc(OC)cc1` stands -0.532%; under `CCOc1ccc(N2C(=O)CN(O)C=C3N=c4ccccc4=C32)cc1`, 4.61%; under `COc1cccc(CN2CC(C(=O)NCCOc3cccnc3)CCC2=O)c1` (centres unmarked), 20.2%. On to `O=C(COc1cccc(C(F)(F)F)c1)Nc1ccccc1N1CCCCC1`, for which the “hERG current change (%, negative = inhibition) at 10uM” value is 3.44%. The same measure for `CCN(CC)CCNC(=O)C1CCCCN1S(=O)(=O)c1cccc([N+](=O)[O-])c1` (centres unmarked): -16.3%; for `CC1CCCN(CCC(=O)c2ccc(Br)cc2)C1.Cl` (centres unmarked): -64.4%. The same measure for `CCOC(=O)CNC(=S)n1cnc(N)n1`: 19.9%. The same measure for `N#Cc1cc([N+](=O)[O-])ccc1Oc1ccc(-c2nnco2)cc1`: -7.07%. Turning to `Cc1nc2ccc(NC(=O)c3ccc([N+](=O)[O-])cc3)cc2[nH]1`, the “hERG current change (%, negative = inhibition) at 10uM” value is given as -20.6%. Under `O=c1nc(N2CCOCC2)nc(N/N=C/c2ccc3c(c2)OCO3)[nH]1` stands 4.84%; under `CCOC(=O)/C=C/C(=O)N1CCN(C(=O)/C=C/C(=O)OCC)CC1`, -30.2%; under `CN(C)CCCN(C(=O)c1ccc(S(=O)(=O)N2CCc3ccccc3C2)cc1)c1nc2c(F)cccc2s1.Cl`, 4.85%. The same measure for `O=C(C/C=N/OCc1ccc(Cl)cc1)c1cnc(-c2ccccc2)s1`: 12.5%.

For the compound `CCN(CC)c1ccc(/C=N/N2CCN(Cc3ccccc3)CC2)c(O)c1`, the “hERG current change (%, negative = inhibition) at 10uM” value is recorded as -5.02%.

With `Cc1nc2ccccc2c(C)c1CC(=O)N(C)CC(=O)Nc1cccc(F)c1`, the “hERG current change (%, negative = inhibition) at 10uM” value was -55.9%.

Consider `COc1ccc(CN(C2CCCC2)S(=O)(=O)c2ccc(-n3cnnn3)cc2)cc1OC`, for which the “hERG current change (%, negative = inhibition) at 10uM” value is -64%.

As for `O=C(CSc1ncc(-c2ccccc2)[nH]1)Nc1cccc(O)c1`, the “hERG current change (%, negative = inhibition) at 10uM” value is given as -4.45%.

As to `Cc1ccc(-n2nc(C)c(Sc3ccccc3[N+](=O)[O-])c2N)cc1`, the “hERG current change (%, negative = inhibition) at 10uM” value is given as -17.2%. As for `CCc1nnc(NC(=O)CSc2ccc(-c3nc4ccc(C)cc4[nH]3)cn2)s1`, the “hERG current change (%, negative = inhibition) at 10uM” value turned out to be 6.54%. The same measure for `Nc1nonc1C(=O)OCC(=O)N1CCCCC1`: 13.7%; for `Cc1cc(C)n(Cc2cccc(C(=O)N/N=C/c3ccncc3)c2)n1`: 9.21%; for `Cc1ccccc1NC(=O)Nc1ccccc1C(=O)NCc1ccccc1`: -3.26%.

Turning to `Cc1ccc(NC2CCCN(C(=O)CCC3(C)CC3)C2)cc1C` (centres unmarked), the “hERG current change (%, negative = inhibition) at 10uM” value is given as -23.1%. Turning to `O=C(CSc1ccc2nnc(CCNC(=O)c3ccccc3)n2n1)NC1CCCC1`, the “hERG current change (%, negative = inhibition) at 10uM” value is given as 17.7%. For the compound `O=C1C(=O)N(O)C2CCCCC2N1O` (centres unmarked), the “hERG current change (%, negative = inhibition) at 10uM” value was -2%. The same measure for `O=c1c2cc(Cl)cc(Cl)c2nc2n1CCC2`: 15.1%; for `CCn1c(SCC(=O)Nc2sc3c(c2C#N)CCCC3)nnc1-c1ccco1`: -15%. Under `Cc1cccc(N(C(=O)c2csnn2)C(C(=O)NC(C)(C)C)c2cccnc2)c1` (centres unmarked) stands 22.3%; under `COc1ccccc1N=Cc1c(O)n(C)c(=O)n(C)c1=O`, -0.384%.

With `COC(=O)C1=C(c2ccc3ccccc3c2)C[C@@H]2CC[C@H]1N2C(=O)NC1Cc2ccccc2C1`, the “hERG current change (%, negative = inhibition) at 10uM” value is 14.2%. As for `O=C(O)C1C2C=CC(C2)C1C(=O)Nc1cccc(C(=O)N2CCCCC2)c1` (centres unmarked), the “hERG current change (%, negative = inhibition) at 10uM” value was -9.28%. Under `CC(C)CC(C(=O)Nc1ccccc1)N1C(=O)C2C3C=CC(C3)C2C1=O` (centres unmarked) stands 9.56%; under `Cc1ccc(C(=O)Nc2ccc(S(=O)(=O)Nc3ncccn3)cc2)cc1[N+](=O)[O-]`, 13.4%. Under `COc1ccc(NC(=S)NCC(c2ccco2)N2CCCC2)cc1` (centres unmarked) stands -12.2%; under `C=CCn1c(SC2CCOC2=O)nc2scc(C3CC3)c2c1=O` (centres unmarked), -64.6%. Under `CCOCCCNC(=S)N(CCO)Cc1cc2cc3c(cc2[nH]c1=O)OCCO3` stands 18%; under `O=c1[nH]c(SCc2ccc(Cl)cc2)nc2c1CCC2`, 2.94%.

On to `O=C(NCc1ccc2c(c1)OCO2)C1CCN(Cc2cnn(-c3ccccc3)c2-n2cccc2)CC1`, for which the “hERG current change (%, negative = inhibition) at 10uM” value was -49.2%. As for `CCCCCCCSc1cc(OC)c(CCNC)cc1OC.O=C(O)/C=C\C(=O)O`, the “hERG current change (%, negative = inhibition) at 10uM” value is -41.3%. Regarding `Cc1cccc(N2CC(C)Cn3c2nc2c3c(=O)n(CC(=O)OCc3ccccc3)c(=O)n2C)c1` (centres unmarked), the “hERG current change (%, negative = inhibition) at 10uM” value is given as -7.1%. Under `O=C(NCC(=O)N1CCN(c2ccccc2F)CC1)c1ccc(Br)o1` stands -39.1%; under `CN1CCN(S(=O)(=O)c2ccc3[nH]c(=O)oc3c2)CC1`, -6.28%; under `C=CCN(Cc1nc(-c2cc(OC)c3c(c2)OCO3)oc1C)C1CCS(=O)(=O)C1` (centres unmarked), 8.22%. In the case of `CC(OC(=O)C1=NNC(=O)CC1)C(=O)Nc1ncc(Cl)cc1Cl` (centres unmarked), the “hERG current change (%, negative = inhibition) at 10uM” value is recorded as 6.85%.
